From PubChem BioAssay AID1347120 (National Center for Advancing Translational Sciences (NCATS), 2019)
Out of some 390,000 compounds screened, about 930 (0.24%) were called active. The inconclusive results got no clear call from the source; some entries with a clear call stand among them for comparison. The call rests on the fitted dose curve; in most records, active means well fitted activation curve with a large enough effect; inconclusive means small, poorly fitted or top-dose-only effect; inactive means no such curve, though single readings can be large or run the other way. Potencies beside an inconclusive call are fits to weak or partial responses and may not hold up.
Potency means the concentration at half of the fitted maximal effect; tags describe the fitted curve by direction and shape.

Assay: qHTS for Suppressors of FUS Proteinopathy: Primary screen using FUS-linked yeast assay; further: nearly all actives have a fitted effect of over 55% in size;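 on growth rescue (activation): plate controls were DMSO vehicle for no effect and reference control for full effect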
Conditions: S. cerevisiae FUS-expressing, OD600, 24 h; Potency: growth rescue; growth rescue (activation): at 76.6 µM (top of the series)
How it was run: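 Steps: raffinose overnight preculture; dilution to OD 0.005 in 2% galactose minimal medium; compound addition (concentration series); 24hr at 30C, 99% humidity; absorbance read at 600 nm.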
For `CC(CC(=O)N1CCN(C(=O)c2ccccc2)CC1)c1ccccc1` (centres undefined), the “growth rescue (activation)” value was inactive: 10.3%.
For `Cc1cccc(OCC(=O)OCC(=O)c2c(N)n(C)c(=O)n(C)c2=O)c1C`, the Potency was inconclusive: 15.8 µM [activator, partial curve, poor fit].
For `COc1ccc(C(=O)N2CCN(c3cccc(C)c3C)CC2)cc1S(=O)(=O)NC1CC1`, the Potency was inconclusive: 31.6 µM [activator, single point].
For `Cc1ccc(S(=O)(=O)N2CCCCC2)cc1NCC(=O)Nc1ccc(Br)cc1F`, the “growth rescue (activation)” value was inactive: -27.2%.
For `Cc1ccc(-c2nn(C)c(=O)c3ccccc23)cc1CNC(=O)c1ccccc1`, the “growth rescue (activation)” value was inactive: 29.2%.
With `CCc1ccc(C(=O)c2cn(CC(=O)Nc3cc(F)ccc3F)c3nc(C)ccc3c2=O)cc1` the “growth rescue (activation)” value was inactive: -23.3%.
For `COc1ccc(CN(Cc2ccccn2)C(=O)CN2C(=O)COc3ccccc32)cc1`, the “growth rescue (activation)” value was inactive: 10.7%.
For `O=C(COc1ccc2ccccc2c1)NCCn1ccc2ccccc21`, the Potency was inconclusive: 31.6 µM [activator, single point].
In the case of `Cc1cc(C)cc(OCCCC(=O)O)c1`, the “growth rescue (activation)” value is reported as inactive: -34.3%.
In the case of `CCN(CC)S(=O)(=O)c1cc(NC(=O)c2cc(-c3ccccn3)nc3ccccc23)ccc1C`, the Potency is reported as inconclusive: 44.7 µM [activator, single point].
With `CSc1ccc(CCNC(=O)c2cc3cc(S(=O)(=O)N4CCCCC4)ccc3n2C)cc1` the “growth rescue (activation)” value was inactive: 24.6%.
In the case of `C=CCN1c2ccccc2[C@]23C[C@@H](C(=O)OC)N(C(=O)C4CCC4)C2=NC(C(=O)OC)=C(C(=O)OC)[C@H]13`, the Potency is reported as inconclusive: 15.8 µM [activator, partial curve].
In the case of `COc1ccc(S(=O)(=O)N(C(C)=O)c2ccc3oc(=O)sc3c2)cc1`, the Potency is reported as inconclusive: 35.5 µM [activator, single point].
In the case of `COc1ccc(-n2c(C)cc(/C=C3\C(=N)N4N=C(CC(=O)N5CCOCC5)SC4=NC3=O)c2C)c(OC)c1`, the Potency is reported as inconclusive: 6.31 µM [activator, full curve].
In the case of `Cc1nnc2c(N3CCN(c4ccccc4F)CC3)nc3ccc(C(=O)c4ccccc4)cc3n12`, the “growth rescue (activation)” value is reported as inactive: 1.15%.
For `CCOC(=O)c1ccc(NC(=O)Cn2ncc(Cl)c(Cl)c2=O)cc1`, the “growth rescue (activation)” value was inactive: 61.8%.
In the case of `CCOC(=O)c1c(C)c(-c2ccccc2)n(CC(=O)NCCc2cccc(C)c2)c1C`, the “growth rescue (activation)” value is reported as inactive: -11.7%.
For `COc1ccc(/C=N/NC(=O)c2ccc(NC(=O)c3cccc([N+](=O)[O-])c3)cc2)c(C(=O)O)c1OC`, the Potency was inconclusive: 35.5 µM [activator, single point].
In the case of `O=C(Nc1ccc2ccccc2c1)C1CC2CCC1C2` (centres undefined), the Potency is reported as inconclusive: 28.2 µM [activator, partial curve].
For `COc1ccc2c(c1)c1c(c(=O)n(Cc3ccccc3)c(=O)n1CC(=O)NCc1ccccc1)n2C`, the “growth rescue (activation)” value was inactive: 27.3%.
With `CN(C)CCN(Cc1ccco1)C(=O)c1oc2ccccc2c1NC(=O)c1cccc(F)c1` the Potency was inconclusive: 17.8 µM [activator, partial curve, poor fit].
In the case of `CCCCCCCNC(=O)c1cc(-c2ccncc2)nc2ccccc12`, the Potency is reported as inconclusive: 15.8 µM [activator, partial curve, poor fit].
For `O=C(c1cc(-c2ccc(Cl)cc2)on1)N1CCN(c2ccc(F)cc2)CC1`, the “growth rescue (activation)” value was inactive: -8.79%.
For `COc1ccccc1C1C(C(=O)c2ccc(C)o2)=C(O)C(=O)N1c1cc(C)on1` (centres undefined), the Potency was inconclusive: 50.1 µM [activator, single point].
For `Cc1ccc(/C=N/NC(=O)c2cc(C)oc2C)cc1`, the “growth rescue (activation)” value was inactive: 24.5%.
For `CCOC(=O)c1ccc(N=c2sc(C(=O)OC)cc(=O)n2-c2ccc(C(=O)OCC)cc2)cc1`, the Potency was inconclusive: 22.4 µM [activator, partial curve, poor fit].
For `COc1ccc(CNC(=O)Cc2c(C)c3c(cc(C)c4c(C)c(C)oc43)oc2=O)cc1OC`, the “growth rescue (activation)” value was inactive: -24.9%.
In the case of `COc1ccc(N2CCN(C(=O)c3cc4c(-c5cccc(OC)c5)nn(C)c4s3)CC2)cc1`, the Potency is reported as inconclusive: 12.6 µM [activator, partial curve, poor fit].
In the case of `CC(=O)Oc1ccc(/C=C2\C=C(c3ccc(C)cc3)OC2=O)cc1`, the “growth rescue (activation)” value is reported as inactive: 7.23%.
For `CCC(C)NC(=O)CSc1nnc(-c2cc(OC)c(OC)c(OC)c2)c(-c2cc(OC)c(OC)c(OC)c2)n1` (centres undefined), the “growth rescue (activation)” value was inactive: 9.83%.
For `CCC(=O)N1CCc2cc(S(=O)(=O)CCC(=O)NCCc3ccccc3)ccc21`, the Potency was inconclusive: 44.7 µM [activator, single point].
With `COc1ccc(C2C(C(=O)Nc3ccc(C)c(C)c3)CCC(=O)N2c2ccc(OC)cc2)cc1` (centres undefined) the Potency was inconclusive: 20 µM [activator, partial curve].
In the case of `COc1cccc(-c2ccc(-c3noc(-c4cccs4)n3)c(OC)n2)c1`, the growth rescue (activation) is reported as inconclusive: -18.5% [activator].
With `CCN1CCN(S(=O)(=O)c2ccc(Cl)c(C(=O)NC(C)c3ccccc3Cl)c2)CC1` (centres undefined) the “growth rescue (activation)” value was inactive: 9.75%.
With `Cc1ccccc1CSc1nnc(-c2ccccc2)c(=O)[nH]1` the Potency was inconclusive: 31.6 µM [activator, single point].
In the case of `CC(C)CN1C(=O)C[C@]2(C(=O)N(C)c3ccc(NS(=O)(=O)C4CCCCC4)cc32)C1c1ccccc1` (some centres undefined), the “growth rescue (activation)” value is reported as inactive: 44.5%.
For `C[C@]12CC[C@H](O)CC1=C[C@H](O)C1C2CC[C@@]2(C)C1CC[C@@]2(O)C#Cc1ccc(CN)cc1` (some centres undefined), the Potency was inconclusive: 39.8 µM [activator, single point].
In the case of `O=C(NC1C/C=C\C(c2ccccc2)N(c2ccccc2)C(=O)C1)OCC1c2ccccc2-c2ccccc21` (centres undefined), the Potency is reported as inconclusive: 17.8 µM [activator, single point].
In the case of `CCOC(=O)c1ccc(N2C(=O)CC(N3CCC(Nc4ccc(F)cc4)CC3)C2=O)cc1` (centres undefined), the “growth rescue (activation)” value is reported as inactive: 21.4%.
In the case of `COc1cccc(S(=O)(=O)N(C)C[C@@H]2OCc3cnnn3CCCC(=O)N([C@@H](C)CO)C[C@@H]2C)c1`, the “growth rescue (activation)” value is reported as inactive: -5.73%.
In the case of `CCN(CC)c1ccc(/C=N/NC(=O)CNC(=O)/C=C/c2ccco2)cc1`, the Potency is reported as inconclusive: 6.31 µM [activator, full curve, poor fit].
With `CC(C)(C)OC(=O)NCCCC[C@H](NC(=O)c1nc[nH]c1C(=O)N1CCN(C(=O)OC(C)(C)C)CC1)C(=O)OC(C)(C)C` the Potency was inconclusive: 3.98 µM [activator, partial curve, poor fit].
In the case of `CNC[C@H]1Oc2ccc(NC(=O)Nc3ccc4c(c3)OCO4)cc2C(=O)N([C@H](C)CO)C[C@@H]1C`, the Potency is reported as inconclusive: 50.1 µM [activator, single point].
For `CN(CCc1ccccc1)C(=O)c1ccc(NC(=O)Cc2ccc(NC(=O)C3CCN(C(=O)CCc4ccccc4)CC3)cc2)cc1`, the Potency was inconclusive: 22.4 µM [activator, single point].
In the case of `COc1ccc(C(C)=O)cc1CSc1nnc(Nc2ccc(C)cc2C)s1`, the “growth rescue (activation)” value is reported as inactive: 51.4%.
In the case of `COc1ccc(C2c3[nH]c4ccccc4c3CCN2C(=O)c2ccc(=O)n(C)n2)c(F)c1` (centres undefined), the Potency is reported as inconclusive: 39.8 µM [activator, single point].
For `O=C(C1CC1)N1CCc2cc(S(=O)(=O)NC3CCN(Cc4ccccc4)CC3)ccc21`, the Potency was inconclusive: 20 µM [activator, partial curve, poor fit].
With `CCCn1nnc(NC(=O)/C=C/c2ccc(C(C)C)cc2)n1` the Potency was inconclusive: 0.891 µM [activator, full curve, poor fit].
In the case of `Cn1cccc1C(=O)NC(=O)COC(=O)CNC(=O)CNC(=O)c1ccc(Cl)cc1Cl`, the Potency is reported as inconclusive: 25.1 µM [activator, partial curve, poor fit].
For `CC1(C)Cc2ccccc2C(=NCCCC(=O)O)N1`, the “growth rescue (activation)” value was inactive: 15.9%.
In the case of `N#C/C(=C\c1cccnc1)c1ccccn1`, the “growth rescue (activation)” value is reported as inactive: -12.2%.
For `Cc1c(Cl)cnc(NC(=O)COC(=O)Cc2coc3ccc4ccccc4c23)c1Cl`, the Potency was inconclusive: 12.6 µM [activator, partial curve].
In the case of `COc1cccc(N2CC(C)Cn3c2nc2c3c(=O)n(CCN3CCOCC3)c(=O)n2C)c1` (centres undefined), the growth rescue (activation) is reported as inconclusive: 83.8% [activator].
With `Oc1ccc(Oc2ccccc2F)c2cccnc12` the “growth rescue (activation)” value was inactive: 8.11%.
For `C[C@@]12C(=O)N(c3ccc(Cl)cc3)C(=O)N1[C@@H]1c3ccccc3OC[C@@H]1[C@H]2c1ccccc1`, the Potency was inconclusive: 25.1 µM [activator, partial curve].
With `COC(=O)c1cc(C)nc2c1c(=O)nc(SCc1ccccc1Cl)n2C1CC1` the Potency was inconclusive: 22.4 µM [activator, partial curve, poor fit].
In the case of `COc1ccc(C(=O)NCc2nnc(SCC(=O)NC3CCCCC3)n2C)cc1`, the “growth rescue (activation)” value is reported as inactive: 17.6%.
With `COc1ccc(-n2c(COc3ccc(C)cc3)nnc2SCC(=O)Nc2ccc(S(=O)(=O)Nc3cc(C)nc(C)n3)cc2)cc1` the Potency was inconclusive: 22.4 µM [activator, partial curve, poor fit].
For `CCc1ccc(NC(=O)CC2S/C(=N/N=C3CCCCCC3)NC2=O)cc1` (centres undefined), the Potency was inconclusive: 10 µM [activator, partial curve, poor fit].
For `CC(C)N(Cc1nc(-c2ccc(Cl)cc2)no1)C(=O)c1ccco1`, the “growth rescue (activation)” value was inactive: -1.57%.
With `CC(C)(C)c1ccc(C(=O)NC(Cc2c[nH]c3ccccc23)C(=O)OCC(=O)c2ccc(Br)cc2)cc1` (centres undefined) the Potency was inconclusive: 39.8 µM [activator, single point].
For `COC(=O)c1ccc(CSC2=NC[C@@H]3[C@@H]4C(=O)N(Cc5ccccc5)C(=O)[C@@H]4[C@](Cc4ccccc4)(C(=O)OC)N23)cc1`, the Potency was inconclusive: 25.1 µM [activator, partial curve, poor fit].
In the case of `COc1ccc(CCNC(=O)CS(=O)(=O)Cc2nc(-c3cccc(Cl)c3)oc2C)cc1OC`, the “growth rescue (activation)” value is reported as inactive: 0.409%.
For `COC(=O)[C@]12CCCCC=C1N(Cc1ccc(Cl)cc1Cl)C(=O)[C@H](CC(=O)N1CCOCC1)C2`, the Potency was inconclusive: 35.5 µM [activator, single point].
